# Laboratory results reported in the supplement of paper PMC4604168 (melanoma cell lines).
# The other results are listed elsewhere or left out. Many values rest on one well or one pass, so single values are uncertain.
# System: 501Mel
# Assay: cell count relative to DMSO control; melanoma cells; higher = more viable cells
# Details: library dose: low library concentration; 72 h
# 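Also: cell number obtained by counting DAPI-stained nuclei in high-throughput microscope images with image analysis software, screen run in 1,536-well plates.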
row,SMILES,cell count [%]
1,"NC(=O)c1ccc(N(C(N)=O)c2c(F)cccc2F)nc1-c1ccc(F)cc1F + Cn1cncc1[C@@](N)(c1ccc(Cl)cc1)c1ccc2c(c1)c(-c1cccc(Cl)c1)cc(=O)n2C [tipifarnib] (first compound 0.4 µM, partner dose 0.01 µM)",82.7
2,"NC(=O)c1ccc(N(C(N)=O)c2c(F)cccc2F)nc1-c1ccc(F)cc1F + CO[C@@H]1[C@H](N(C)C(=O)c2ccccc2)C[C@H]2O[C@]1(C)n1c3ccccc3c3c4c(c5c6ccccc6n2c5c31)C(=O)NC4 [Midostaurin] (first compound 0.4 µM, partner dose 0.08 µM)",113
3,"NC(=O)c1ccc(N(C(N)=O)c2c(F)cccc2F)nc1-c1ccc(F)cc1F + CN(NC(=O)CC(=O)NN(C)C(=S)c1ccccc1)C(=S)c1ccccc1 [STA4783] (first compound 0.4 µM, partner dose 0.006 µM)",40.2
4,"Cc1ccc(NC(=O)c2cccc(N(C)C)c2)cc1NC(=O)c1ccc(O)cc1 + O=C(O)c1ccc(-c2c[nH]c3ncc(-c4ccccc4)cc23)cc1C1CCCC1 [GSK650394] (first compound 2 µM, partner dose 0.16 µM)",76.6
5,"NC(=O)c1ccc(N(C(N)=O)c2c(F)cccc2F)nc1-c1ccc(F)cc1F + Cc1cc(N2CCOCC2)cc2[nH]c(-c3c(NC[C@@H](O)c4cccc(Cl)c4)cc[nH]c3=O)nc12 [BMS536924] (first compound 0.4 µM, partner dose 0.2 µM)",86.6
